Data on 14 molecules can be found in paper PMC12136788.

This is one part of the list.

B1: ENSG00000112679:stop:overlap|stop_codon|ENSG00000112679|stop_codon|NA|stop_codon (ssRNA)
RNA: GGGAGUUCUACAGUCCGACGAUCGCUUCCAGAGACAGCUCCAGGAGUUUGAGAAGCAUGAGGUCCAUCAGGUAAGCAGUUCUUAGGGGACAUCAGAGAUGCAGGCAGGUGCCCCUGAACGGUGCCCACAGUCUUUCCGUACACCAACAGAGGAUUGAGCAUCA
B2: chr4:173248057:173248158:+|CDS|ENSG00000109586|unk|total|mutant (ssRNA)
RNA: GGGAGUUCUACAGUCCGACGAUCUUCAAACCUGUGGUACCAUGGCCUCAUGUUGAAGGAGCCGAAGUGGACUCCGAGUCUAUCCGAAGAAUAAACAAGGCCAAAAAUGAACAAGAGCACCAUGCUGGAGGAGAUUCCCAGAAACAACAGAGGAUUGAGCAUCA
B3: chr20:59325757:59325866:+|3pUTR|ENSG00000124205|unk|total|mutant (ssRNA)
RNA: GGGAGUUCUACAGUCCGACGAUCUUAUGUGGAUCUGUUCAAAGCCGUCACUGUAUAUACGUACCGAGAGGCCGACCGGCCGGCCGAUUUUAAAUUGCAUUCUGAAUACAAACUCAUACUCCUCCGAGCUUGAAUUACAUUUUUCAACAGAGGAUUGAGCAUCA
B4: ENSG00000070961:be:win_6001|3pUTR|ENSG00000070961|bound_else_gene|NA|bound_elsewhere_windowed (ssRNA)
RNA: GGGAGUUCUACAGUCCGACGAUCCAAGACAUGCUUAGUGUGUAUUUCUCUCUUUGAGACACUGUAAUUUCUACCAGAAAUUUCCAGAGCAUUAUGUAGGUAGAAAAAAAUGCAAGCAAGCUGUUAAAGAUCUUGGAUCCCAUUCAACAGAGGAUUGAGCAUCA
B5: chr1:183142599:183142700:+|CDS|ENSG00000135862|msi1|total|mutant (ssRNA)
RNA: GGGAGUUCUACAGUCCGACGAUCAACGAGAUUGAAGGCACCCUAAACAAAGCCAAAGAUGAAAUGAAGGUCAGCGAUCUUGACCGGAAAGUGUCUGACCUGGAGAAUGAAGCCAAGAAGCAGGAGGCUGCCAUCAUGGACUAUCAACAGAGGAUUGAGCAUCA
B6: chr5:60870179:60870280:-|3pUTR|ENSG00000049167|unk|FALSE|unique (ssRNA)
RNA: GGGAGUUCUACAGUCCGACGAUCUCUCCUUGCCCUUUUUGUUUUGUUUUGUUUCAAUUCUUAGAACUGUAGUUGGCAUGUAGUAGGUGCUUAAUAAUUACUUGUUUUGUUGUUUCUGUCCUAUACUUUGAGAGUUUGUGUUUGCAACAGAGGAUUGAGCAUCA
B7: ENSG00000124766:be:win_751|CDS|ENSG00000124766|bound_else_gene|NA|bound_elsewhere_windowed (ssRNA)
RNA: GGGAGUUCUACAGUCCGACGAUCGGCGCCGCCGCCGACCACCACUCGCUGUACAAGGCGCGGACUCCCAGCGCCUCGGCCUCCGCCUCCUCGGCAGCCUCGGCCUCCGCAGCGCUCGCGGCCCCGGGCAAGCACCUGGCGGAGCAACAGAGGAUUGAGCAUCA
B8: ENSG00000180447:stop:overlap|stop_codon|ENSG00000180447|stop_codon|NA|stop_codon (ssRNA)
RNA: GGGAGUUCUACAGUCCGACGAUCCCCGGGGCGCCUGGACCCCACUCGCCUCCAUCUUGCUGCUGCUGCUUGGGCCGCUCUUUUAGCCCUCGCGCCCCCCGCCGUUGGCUGCGGGAGAGCCCGCGUCCCACUCCCGUGCUCGCCCAACAGAGGAUUGAGCAUCA
B9: ENSG00000107863:be:win_3901|CDS|ENSG00000107863|bound_else_gene|NA|bound_elsewhere_windowed (ssRNA)
RNA: GGGAGUUCUACAGUCCGACGAUCGUGUUUGGUCCCACCCUUGUUCGAACAUCAGAAGACAACAUGACCCACAUGGUCACCCACAUGCCUGACCAGUACAAGAUUGUAGAAACGCUCAUCCAGCACCAUGACUGGUUUUUCACACAACAGAGGAUUGAGCAUCA
B10: chr7:137227872:137228000:-|3pUTR|ENSG00000105894|msi1_unk|total|mutant (ssRNA)
RNA: GGGAGUUCUACAGUCCGACGAUCGGAACAUAAAAAGGACAUCAGCAAACAGGAUCAGUUAACUAUUGCAUUUAUAUGUACCGCCGGCUUUGUAUUCAAAAAUUAUCUACCGCUAAGUACACAAUAAGCAAAAACAAAAAGAAACAACAGAGGAUUGAGCAUCA
B11: chrX:18604022:18604123:+|CDS|ENSG00000008086|msi1|FALSE|unique (ssRNA)
RNA: GGGAGUUCUACAGUCCGACGAUCGACGAAGGUCUCCCUGCCAAUGAAAGCUUCCUAAAUGGAAACCUUGCUGGAGCUAGUCUUAGUCCACUGCACACCAAAACCUACCAAGCAAGCAGCCAGCCUGGGUCUACCAGCAAAGAUCAACAGAGGAUUGAGCAUCA
B12: ENSG00000198589:be:win_5601|CDS|ENSG00000198589|bound_else_gene|NA|bound_elsewhere_windowed (ssRNA)
RNA: GGGAGUUCUACAGUCCGACGAUCGAAGAAUGCAGGCCUUGCUUUUAUCGAACUUGUCAAUGAAGGAAGGUUGCUUAGCCAGACAAUGAAGGAUCAUCUAGUAAGAGUAGCAAAUGAAGCUGAAUUUAUCCUGAGCAGGCAGAGCAACAGAGGAUUGAGCAUCA
B13: chr12:123586815:123586897:+|5pUTR_CDS|ENSG00000086598|msi1_unk|total|mutant (ssRNA)
RNA: GGGAGUUCUACAGUCCGACGAUCGAAUCCAGUGGGAAAUACACAUUUGCUGCUCACAUGGAUGGAACAUACAAAUUUUGUUUCCGUAACCGGAUGUCCACCAUGACUCCAAAAACCGUGAUGUUCACCAUUGAUAUUGGGGAGCAACAGAGGAUUGAGCAUCA
B14: chr14:22612100:22612201:+|3pUTR|ENSG00000100439|msi1|total|mutant (ssRNA)
RNA: GGGAGUUCUACAGUCCGACGAUCCCACCCCUGACCCAUCUGUCAGCUUUUUCCCAGGGAGCCGUUUCAGGGGUUCUGGGCAGCCGGCUGGGCCUGGCCUCAGAACCUGGUGGCUCCUGCCUGCUCCUUCACUUUUGUAAAACCCAACAGAGGAUUGAGCAUCA

The target of the assay is MSI1 full-length (mouse, UniProt Q61474 1-362). As to the kind of experiment: nsRBNS (natural sequence RNA bind-n-seq); RBNS binding buffer (assumed for nsRBNS): 25 mM Tris pH 7.5, 150 mM KCl, 3 mM MgCl2, 0.01% Triton X-100, 500 ug/ml BSA, 20 U/ml SUPERase-In, 4 C; UNK is unkempt and MSI1 is Musashi-1; names of the RNAs are library labels; protein concentration not given here; high values mean tight binding.
Chain of UniProt Q61474 (Q61474 whole entry): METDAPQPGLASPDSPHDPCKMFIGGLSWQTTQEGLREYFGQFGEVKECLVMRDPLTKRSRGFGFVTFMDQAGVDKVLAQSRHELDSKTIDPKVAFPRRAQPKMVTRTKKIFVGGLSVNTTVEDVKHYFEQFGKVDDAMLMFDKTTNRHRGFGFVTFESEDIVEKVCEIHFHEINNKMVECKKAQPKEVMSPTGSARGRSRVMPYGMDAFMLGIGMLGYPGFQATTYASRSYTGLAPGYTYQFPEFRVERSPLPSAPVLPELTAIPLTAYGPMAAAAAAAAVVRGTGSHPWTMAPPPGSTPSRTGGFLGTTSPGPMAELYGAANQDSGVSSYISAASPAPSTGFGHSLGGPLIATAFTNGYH
B1 returned a binding signal of 0.639 enrichment R.

Turning to B2, the binding signal was determined as 0.278 enrichment R.

As for B3, the binding signal was determined as 0.342 enrichment R.

On to B4, for which the binding signal was 0.464 enrichment R.

Regarding B5, the binding signal worked out at 0.415 enrichment R.

The molecule B6 came in with a binding signal of 10.3 enrichment R.

Take B7: the binding signal was found to be 0.389 enrichment R.

For B8, the binding signal came to 0.415 enrichment R.

As for B9, the binding signal was 0.401 enrichment R.

For B10, the binding signal came out at 0.887 enrichment R.

For B11, the binding signal came to 0.668 enrichment R.

B12 registered a binding signal of 2.66 enrichment R.

B13 displayed a binding signal of 0.268 enrichment R.

With B14, the binding signal worked out at 1.39 enrichment R.
